Measured values from the BET-seq Pho4 binding data (Le et al. 2018).
The list shows a part of the results. The energies were worked out here from pooled read counts, against the library average; single values are noisy.

What follows are sequences tested against T1, Pho4 (S. cerevisiae) (UniProt P07270) (assay: relative binding free energy (BET-seq); higher = weaker binding). Conditions: reference: library average.
T1 sequence: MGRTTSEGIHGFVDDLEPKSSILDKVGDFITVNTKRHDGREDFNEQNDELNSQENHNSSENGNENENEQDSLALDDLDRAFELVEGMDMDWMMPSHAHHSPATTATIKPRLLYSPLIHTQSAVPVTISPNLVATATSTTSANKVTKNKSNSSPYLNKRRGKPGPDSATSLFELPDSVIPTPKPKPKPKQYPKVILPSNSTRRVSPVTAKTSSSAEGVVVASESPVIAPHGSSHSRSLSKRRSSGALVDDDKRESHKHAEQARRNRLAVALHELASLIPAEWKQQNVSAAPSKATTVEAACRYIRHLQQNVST

Sequence | relative binding free energy
GTAATCACGTGTAGCT | 0.21 kcal/mol
TCGCGCACGTGGAGGT | -0.18 kcal/mol
TGTATCACGTGATCTT | 0.15 kcal/mol
GACTGCACGTGGAGGA | 0.19 kcal/mol
CGTCTCACGTGTGGGA | 0.2 kcal/mol
CACTGCACGTGGGGCG | -0.05 kcal/mol
TTTAGCACGTGCTTGG | -0.05 kcal/mol
TGTGTCACGTGGGAAG | 0.02 kcal/mol
GGTTGCACGTGCGTTG | 0.05 kcal/mol
TGAGACACGTGTGAGA | 0.23 kcal/mol
CTTTGCACGTGAGGGC | 0.22 kcal/mol
TTGTCCACGTGGAAGG | 0 kcal/mol
ATAAGCACGTGGGGTC | -0.16 kcal/mol
AGATGCACGTGAGGGT | 0.16 kcal/mol
GATGGCACGTGATGCT | 0.03 kcal/mol
CCGCGCACGTGTGGGG | -0.09 kcal/mol
CGGGACACGTGGTGGT | -0.02 kcal/mol
AATCACACGTGGTTGG | 0.12 kcal/mol
TAGTACACGTGTATTG | 0.03 kcal/mol
AGATACACGTGGGTAT | -0.15 kcal/mol
TGTCTCACGTGTTCTG | 0.15 kcal/mol
AGTTCCACGTGTGGAG | 0.08 kcal/mol
GGTATCACGTGACGGT | 0.3 kcal/mol

Sequence | relative binding free energy
GTGTACACGTGACTGG | 0 kcal/mol
TCAGACACGTGTGGGG | 0.12 kcal/mol
TCAATCACGTGTTGTA | 0.21 kcal/mol
CTGTGCACGTGCTTTG | 0.04 kcal/mol
TAGTTCACGTGGCGTT | 0.22 kcal/mol
ACCGGCACGTGAGGGT | 0.11 kcal/mol
TTTGGCACGTGTGCGT | -0.13 kcal/mol
AGTACCACGTGGTGAG | -0.03 kcal/mol
GGTCGCACGTGTGCGT | -0.03 kcal/mol
TGGTGCACGTGTTGCA | -0.11 kcal/mol
TGCGACACGTGGTGGG | -0.01 kcal/mol
TCAATCACGTGGTGTA | 0.28 kcal/mol
ACTTGCACGTGGGTTT | -0.14 kcal/mol
CGTTTCACGTGGCGAG | 0.3 kcal/mol
TTCTACACGTGGTGAT | 0.08 kcal/mol
GTAGTCACGTGTCGGT | 0.18 kcal/mol
GTGATCACGTGTATAA | 0.22 kcal/mol
TTGGCCACGTGTTCGG | -0.12 kcal/mol
ATTGGCACGTGGGGGT | -0.24 kcal/mol
TGGTTCACGTGAGTAT | 0.35 kcal/mol
GTATCCACGTGCGTGG | 0.14 kcal/mol
GAGGGCACGTGGATCG | -0.04 kcal/mol
ACAGTCACGTGTGTGG | 0.1 kcal/mol

Sequence | relative binding free energy
GATTTCACGTGGGGCT | 0.37 kcal/mol
GGTTACACGTGGGCGA | -0.03 kcal/mol
ATAGGCACGTGGTCAT | -0.2 kcal/mol
CTACGCACGTGTGGGG | -0.23 kcal/mol
GATGTCACGTGTGGTG | 0.14 kcal/mol
TTGCGCACGTGCTAGT | -0.15 kcal/mol
CGTTTCACGTGGCGGG | 0.13 kcal/mol
AGGGACACGTGGTGGA | 0.09 kcal/mol
TGATTCACGTGTTTCA | 0.18 kcal/mol
AAAGGCACGTGGACGG | -0.11 kcal/mol
GGAATCACGTGTGGAA | 0.23 kcal/mol
GTAGTCACGTGCGCTG | 0.1 kcal/mol
TGTGGCACGTGGACTC | -0.02 kcal/mol
ATTGTCACGTGAGAAG | 0.26 kcal/mol
GGGTTCACGTGCGTTT | 0.26 kcal/mol
GGGCTCACGTGTTATT | 0.23 kcal/mol
GTTGGCACGTGGGCGA | -0.12 kcal/mol
AAATGCACGTGGTCTG | -0.22 kcal/mol
ATAGTCACGTGGATTG | 0.07 kcal/mol
AAGTTCACGTGACGTA | 0.45 kcal/mol
TTTCGCACGTGTTTGG | 0.01 kcal/mol
AAATGCACGTGAATTT | 0.24 kcal/mol
ATGTGCACGTGTTGTT | -0.05 kcal/mol

Sequence | relative binding free energy
TTTGGCACGTGCGATG | -0.15 kcal/mol
GGTTACACGTGTAATT | 0.32 kcal/mol
ATTGTCACGTGGTTTC | 0.08 kcal/mol
CTTGCCACGTGAGGTG | 0.01 kcal/mol
TTGGCCACGTGACGGG | -0.03 kcal/mol
CGGGGCACGTGCAGTG | -0.17 kcal/mol
TTTTCCACGTGAGTTA | 0.24 kcal/mol
TTTGGCACGTGATAGG | -0.01 kcal/mol
ATTTTCACGTGAAAAA | 0.42 kcal/mol
CTATGCACGTGCGGGT | -0.09 kcal/mol
TTGCGCACGTGTCAGT | -0.12 kcal/mol
GACGTCACGTGGCGTG | 0.03 kcal/mol
CGAAACACGTGTGGTT | 0.08 kcal/mol
TTGAGCACGTGTTTCT | 0.04 kcal/mol
TCATGCACGTGGTTTT | -0.1 kcal/mol
GGGATCACGTGATGGG | 0.29 kcal/mol
TGTTCCACGTGTGGTG | 0.13 kcal/mol
AGGGACACGTGAAAGG | 0.23 kcal/mol
GGGTTCACGTGGGGCA | 0.29 kcal/mol
TCTAGCACGTGGTTTA | -0.21 kcal/mol
GTGGTCACGTGAGCGT | 0.27 kcal/mol
TGTGTCACGTGAGGCA | 0.29 kcal/mol
CTTTACACGTGGTTAG | 0.12 kcal/mol

Sequence | relative binding free energy
GGTACCACGTGGGGAA | -0.13 kcal/mol
TTATCCACGTGCGGTT | 0.03 kcal/mol
ATGAGCACGTGGGTTC | -0.24 kcal/mol
TGTGGCACGTGTATAC | -0.16 kcal/mol
TGTCTCACGTGGGTCG | 0.09 kcal/mol
TTGAACACGTGTGGAT | 0.02 kcal/mol
GGAACCACGTGAGGGT | 0.27 kcal/mol
TTATTCACGTGTGTAG | 0.17 kcal/mol
TTGTACACGTGAAGAT | 0.21 kcal/mol
AAATGCACGTGGATTG | -0.01 kcal/mol
CACGGCACGTGTGGTT | 0.17 kcal/mol
GAAGGCACGTGTCTGG | 0 kcal/mol
TGATTCACGTGTGGAA | 0.22 kcal/mol
ATCGTCACGTGTTATT | -0.03 kcal/mol
TGTAACACGTGAACGT | 0.25 kcal/mol
TCCTTCACGTGATGGG | 0.3 kcal/mol
GGCGCCACGTGTGGTT | -0.04 kcal/mol
GAGGGCACGTGATGTG | 0.14 kcal/mol
GTGATCACGTGTTGGA | 0.2 kcal/mol
GATTTCACGTGGTAGA | 0.29 kcal/mol
AAGCTCACGTGGGGGA | -0.09 kcal/mol
TGTGACACGTGTTGAG | -0.05 kcal/mol
AATTTCACGTGGCTAG | 0.26 kcal/mol
